PubChem BioAssay (Tox21)
Several values for one entry are separate records, joined by “and”; a condition that tells them apart may be missing. Equal values may be shown once. The shares of active, inactive and inconclusive entries below differ from those in the screen. For part of these data: A potency beside an inconclusive call is a rough fit, not a confirmed value. Some structures have more than one record in an assay (separate samples or runs), and their calls can disagree. Activity calls are given as the source filed them. Unless noted, the call rests on the fitted dose curve; in most records, active means well fitted curve in the direction sought with a large enough effect in the repeat runs; inconclusive means weak or mixed curves; inactive means no such curve, though single readings can be large; an effect the other way counts as inactive or inconclusive.

Key:
[1] = qHTS assay to identify small molecule antagonists of the TGF-beta/Smad signaling pathway (AID 1346924; active means well fitted inhibition curve with a large enough effect in the signal ratio in the repeat runs, not every such curve was filed as active; inconclusive means weak or mixed curves; the % refers to the signal ratio); conditions: SBE-bla HEK293T, TGF-beta/Smad reporter, beta-lactamase ratio
Outline: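 SBE-bla HEK 293T cells were plated overnight, then received compound in DMSO plus TGF-beta1 (added as a 0.25 ng/mL solution) and were incubated 5 h at 37 C. Beta-lactamase reporter activity was read after 2 h at room temperature with LiveBLAzer B/G FRET substrate (ex 405, em 460/530 nm).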

[2] = biological target: Progesterone receptor (Homo sapiens) (UniProt P06401); assay: qHTS assay to identify small molecule agonists of the progesterone receptor (PR) signaling pathway (AID 1346784; calls by dose curve; further: nearly all actives have a fitted effect of over 30% in size; on activation: on the % scale 0 is the no-effect control and ±100 the full control effect); conditions: PR-UAS-bla HEK293T, beta-lactamase FRET ratio, 16 h; activation: at 92.4 µM (top of the series) unless noted
Sequence of UniProt P06401 (P06401 whole entry, looked up): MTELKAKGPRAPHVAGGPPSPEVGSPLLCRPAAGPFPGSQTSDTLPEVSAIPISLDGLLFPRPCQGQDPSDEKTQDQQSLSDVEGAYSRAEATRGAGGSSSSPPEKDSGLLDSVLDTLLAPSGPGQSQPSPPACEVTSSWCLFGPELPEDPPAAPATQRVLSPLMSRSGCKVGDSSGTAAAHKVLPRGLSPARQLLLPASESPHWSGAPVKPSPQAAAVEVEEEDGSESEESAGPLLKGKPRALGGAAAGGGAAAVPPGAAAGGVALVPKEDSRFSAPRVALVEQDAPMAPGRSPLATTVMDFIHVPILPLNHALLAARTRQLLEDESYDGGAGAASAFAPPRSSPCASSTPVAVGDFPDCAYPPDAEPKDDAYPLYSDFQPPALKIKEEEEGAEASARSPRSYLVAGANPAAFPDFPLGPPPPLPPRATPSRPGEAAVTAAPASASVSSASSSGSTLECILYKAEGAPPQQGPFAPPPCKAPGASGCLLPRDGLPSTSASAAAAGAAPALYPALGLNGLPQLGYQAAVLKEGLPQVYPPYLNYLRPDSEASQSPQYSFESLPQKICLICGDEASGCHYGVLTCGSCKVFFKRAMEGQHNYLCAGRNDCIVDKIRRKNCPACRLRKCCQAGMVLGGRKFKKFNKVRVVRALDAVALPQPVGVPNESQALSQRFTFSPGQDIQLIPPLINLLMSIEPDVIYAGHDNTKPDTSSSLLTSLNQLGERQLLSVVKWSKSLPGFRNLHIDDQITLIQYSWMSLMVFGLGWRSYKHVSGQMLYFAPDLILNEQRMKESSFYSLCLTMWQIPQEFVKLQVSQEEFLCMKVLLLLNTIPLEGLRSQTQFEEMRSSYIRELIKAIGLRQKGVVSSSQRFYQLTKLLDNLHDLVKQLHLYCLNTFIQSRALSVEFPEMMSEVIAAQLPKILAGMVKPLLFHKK
Outline: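 Reporter assay, GripTite PR-UAS-bla HEK 293T cells: 16 hr exposure to DMSO-dissolved compounds at 37C, 5% CO2, in steroid-depleted (2% charcoal-stripped FBS) medium; beta-lactamase measured by FRET fluorescence.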

[3] = biological target: Progesterone receptor (Homo sapiens) (UniProt P06401); assay: qHTS assay to identify small molecule antagonists of the progesterone receptor (PR) signaling pathway (AID 1346795; active means well fitted inhibition curve with a large enough effect in the signal ratio in the repeat runs, not every such curve was filed as active; inconclusive means weak or mixed curves; the % refers to the signal ratio; on activity change, negative = inhibition: on the % scale 0 is the no-effect control and ±100 the full control effect); conditions: PR-UAS-bla HEK293T, beta-lactamase FRET ratio, 16 h; activity change, negative = inhibition: at 92.4 µM (top of the series) unless noted
Outline: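 Stimulus R5020 at 1 nM final; cells HEK293T PR-UAS-bla; medium with 2% charcoal-stripped FBS; compound exposure 16 hr at 37C, 5% CO2; detection by FRET beta-lactamase substrate, 2 hr, room temperature.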

[4] = qHTS assay to identify small molecule antagonists of the progesterone receptor (PR) signaling pathway - cell viability counter screen (AID 1346798); conditions: PR-UAS-bla HEK293T viability, CellTiter-Glo luminescence, 16 h; series mostly up to 92.4 µM; further: nearly all actives have a fitted effect of over 50% in size
Outline: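 In the same plates used for the beta-lactamase readout, cell viability of compound- and R5020-treated PR-UAS-bla HEK293T cells (16 hr, 37C) was assessed by CellTiter-Glo luminescence.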

[5] = qHTS assay to identify small molecule agonists of the progesterone receptor (PR) signaling pathway - cell viability counter screen (AID 1346799; calls by dose curve; further: nearly all actives have a fitted effect of over 45% in size); conditions: PR-UAS-bla HEK293T viability, CellTiter-Glo luminescence, 16 h; series mostly up to 92.4 µM
Outline: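 Multiplexed viability read: CellTiter-Glo luminescence, 30 min RT, following LiveBLAzer FRET measurement on PR-UAS-bla HEK293T cells exposed to compounds 16 hr.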

[6] = qHTS assay to identify small molecule antagonists of the TGF-beta/Smad signaling pathway - cell viability counter screen (AID 1346824); conditions: SBE-bla HEK293T viability, CellTiter-Glo luminescence; series mostly up to 76.8 µM; further: nearly all actives have a fitted effect of over 50% in size
Outline: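 Cytotoxicity counter-screen run in the same wells as the beta-lactamase Smad reporter read: CellTiter-Glo luminescence after 30 min at room temperature. HEK 293T SBE-bla cells had 5 hr compound exposure at 37 C with TGF-beta1 (0.25 ng/mL stock).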

[7] = qHTS assay to identify small molecule agonists of the TGF-beta/Smad signaling pathway (AID 1346859; active means well fitted activation curve with a large enough effect in the signal ratio in the repeat runs, not every such curve was filed as active; inconclusive means weak or mixed curves; the % refers to the signal ratio); conditions: SBE-bla HEK293T, TGF-beta/Smad beta-lactamase reporter, 5 h; activation: at 76.8 µM (top of the series)
Outline: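 Screening used HEK 293T SBE-bla cells at 4,000/well. Test agents: 5 hr, 37 C. Detection: FRET substrate, 2 hr RT, then excitation 405 nm with emissions at 460 and 530 nm.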

[8] = biological target: Thyrotropin-releasing hormone receptor (Homo sapiens) (UniProt P34981); assay: qHTS assay to identify small molecule antagonists of the thyrotropin-releasing hormone receptor (TRHR) signaling pathway (AID 1346877; active means well fitted inhibition curve with a large enough effect in the repeat runs, not every such curve was filed as active; inconclusive means weak or mixed curves); conditions: TRHR-HEK293, TRH-induced calcium fluorescence, antagonist mode; series mostly up to 51.3 µM
Sequence of UniProt P34981 (P34981 whole entry, looked up): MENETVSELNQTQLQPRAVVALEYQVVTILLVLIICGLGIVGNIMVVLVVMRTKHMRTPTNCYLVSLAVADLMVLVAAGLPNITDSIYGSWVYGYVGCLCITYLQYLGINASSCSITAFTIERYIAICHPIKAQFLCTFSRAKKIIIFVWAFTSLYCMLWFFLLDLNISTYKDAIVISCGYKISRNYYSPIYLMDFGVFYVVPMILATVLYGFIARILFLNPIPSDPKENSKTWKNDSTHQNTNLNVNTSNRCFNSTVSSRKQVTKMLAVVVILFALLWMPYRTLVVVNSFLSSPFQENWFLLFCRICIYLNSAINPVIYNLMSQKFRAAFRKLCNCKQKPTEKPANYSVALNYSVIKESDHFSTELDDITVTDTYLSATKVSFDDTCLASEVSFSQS
Outline: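 Screening used HEK293 cells engineered with TRHR, with a brief 5 min room-temperature compound exposure preceding addition of TRH to 1 nM. The read-out was kinetic calcium-dye fluorescence, concentration-response from 15 doses in triplicate.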

[9] = Human pregnane X receptor (PXR) small molecule agonists, qHTS cell viability counter screen (AID 1346977); conditions: PXR-Luc HepG2 viability, CellTiter-Fluor, 24 h; series mostly up to 92.4 µM; further: nearly all actives have a fitted effect of over 50% in size
Outline: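 In each well, the PXR reporter HepG2 line was checked for viability: CellTiter-Fluor reagent added 23hr post-dosing, fluorescence read after 1hr incubation at 37C.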

[10] = qHTS assay to identify small molecule agonists of the TGF-beta/Smad signaling pathway - cell viability counter screen (AID 1346829); conditions: SBE-bla HEK293T viability, CellTiter-Glo luminescence, 5 h; series mostly up to 76.8 µM; further: nearly all actives have a fitted effect of over 45% in size
Outline: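 Cytotoxicity counter screen: CellTiter-Glo luminescence (30 min, room temperature) measured in the SBE-bla HEK 293T reporter wells after 5 hr compound treatment at 37 C and the 2 hr substrate step.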

[11] = activity, negative = inhibition: at 76.8 µM (top of the series) unless noted
Potency means the concentration at half of the fitted maximal effect; tags describe the fitted curve by direction and shape or compound fluorescence and quenching.

SMILES: C#CC1(O)CC[C@H]2[C@@H]3CCC4=CCCC[C@@H]4[C@H]3CC[C@@]21C (stereo partly specified)
- activity, negative = inhibition ([1]; at 35.3 µM (top of the series)): inconclusive: -14.6%
- activity, negative = inhibition ([1]; at 76.8 µM (top of the series)): inconclusive: 2.34%

SMILES: CN1CCN(CCCN2c3ccccc3Sc3ccc(C(F)(F)F)cc32)CC1
- Potency [2]: inconclusive: 29.8 µM [cytotoxic, single point]
- Potency [3]: inconclusive: 33.5 µM [falling, single point]
- Potency [4]: active: 26.6 µM
- Potency [5]: inconclusive: 37.6 µM [cytotoxic, partial curve, poor fit]
- activity, negative = inhibition [1, 11]: inconclusive: -26.3% [at 35.3 µM]

SMILES: CC[C@H](C)C(=O)O[C@H]1C[C@@H](C)C=C2C=C[C@H](C)[C@H](CC[C@@H]3C[C@@H](O)CC(=O)O3)[C@H]21
- Potency [2]: inconclusive: 3.35 µM [rising, partial curve]
- Potency [4]: active: 62 µM and inconclusive: 30.5 µM [cytotoxic, partial curve, poor fit] and inconclusive: 473 nM [cytotoxic, full curve, poor fit]
- Potency [5]: inconclusive: 31.1 µM [cytotoxic, partial curve, poor fit] and active: 7.66 µM and inconclusive: 596 nM [cytotoxic, full curve]
- Potency [6]: inconclusive: 49.6 µM [cytotoxic, partial curve, poor fit]
- Potency [7]: inconclusive: 44.2 µM [rising, partial curve]
- Potency [8]: active: 38.5 µM

SMILES: CC1=C(/C=C/C(C)=C/C=C/C(C)=C\C(=O)O)C(C)(C)CCC1
- Potency [2]: inactive
- Potency [4]: inconclusive: 27.4 µM [rising, single point]

SMILES: O=C1CN(/N=C/c2ccc([N+](=O)[O-])o2)C(=O)N1
- activation [2]: inconclusive: 11.8%
- Potency [3]: inconclusive: 43.1 µM [rising, partial curve, poor fit]
- Potency [4]: inactive
- activity, negative = inhibition ([1]; at 35.3 µM (top of the series)): inconclusive: -21.4%
- activity, negative = inhibition ([1]; at 76.8 µM (top of the series)): inconclusive: -25.2%
- Potency [9]: active: 27.2 µM and active: 68.6 µM and active: 26.6 µM

SMILES: O=C1NCN(c2ccccc2)C12CCN(CCCC(c1ccc(F)cc1)c1ccc(F)cc1)CC2
- activation [2]: inconclusive: -7.13% [at 42.5 µM]
- Potency [3]: active: 26.6 µM
- Potency [4]: inconclusive: 33.5 µM [cytotoxic, single point]
- Potency [6]: inconclusive: 30.1 µM [cytotoxic, partial curve, poor fit]
- Potency [10]: inconclusive: 30.1 µM [cytotoxic, single point]
- Potency [7]: inconclusive: 26.8 µM [rising, single point]
- Potency [1, 11]: inconclusive: 23.9 µM
- Potency [9]: active: 29.8 µM

SMILES: Nc1ccc(Nc2ccccc2)cc1
- Potency [2]: inconclusive: 68.6 µM [cytotoxic, single point]
- Potency [4]: inactive
- Potency [5]: inconclusive: 60.4 µM [rising, partial curve, poor fit]

SMILES: O=C1OC(O)C(C(Cl)Cl)=C1Cl (stereo unspecified)
- activation [2]: inconclusive: -10.9%
- Potency [3]: inconclusive: 70.7 µM [falling, single point]
- Potency [4]: inconclusive: 70.7 µM [cytotoxic, single point]
- activity, negative = inhibition [1, 11]: inconclusive: -22.2%
- Potency [9]: inconclusive: 70.7 µM [cytotoxic, single point]

SMILES: COc1cc(Cc2cnc(N)nc2N)cc(OC)c1OC
- Potency [2]: active: 5.43 µM
- Potency [4]: inactive

SMILES: CC[C@@]1(O)C(=O)OCc2c1cc1n(c2=O)Cc2c-1nc1ccccc1c2/C=N/OC(C)(C)C
- Potency [2]: inconclusive: 33.5 µM [fluorescent, single point]
- Potency [3]: inconclusive: 11.9 µM [rising, partial curve]
- Potency [7]: inconclusive: 23.9 µM [fluorescent, partial curve]

SMILES: O=c1n(CCO)c(=O)n(CCO)c(=O)n1CCO
- activation [2]: inconclusive: -10.7%
- Potency [3]: inactive and inconclusive: 68.6 µM
- Potency [9]: inconclusive: 68.6 µM [cytotoxic, single point]

SMILES: CN(C)c1ccc(C(=C2C=CC(=[N+](C)C)C=C2)c2ccccc2)cc1
- activation [2]: inconclusive: -18.6% [at 42.5 µM] and inconclusive: -13.2% [at 42.5 µM] and inconclusive: -13.4% [at 42.5 µM]
- Potency [4]: active: 8.63 µM and active: 6.68 µM and active: 7.5 µM
- Potency [5]: active: 9.69 µM and active: 7.5 µM and active: 8.41 µM
- Potency [6]: active: 8.49 µM [middle of 4 runs]
- Potency [7]: inconclusive: 2.46 µM [rising, full curve] and inconclusive: 2.39 µM [rising, full curve]
- Potency [8]: active: 26.9 µM and inconclusive: 11.7 µM [inhibitor, partial curve] and inconclusive: 16.5 µM [inhibitor]
